# Results published in the supplement of paper PMC11417369.
# The list shows a part of the results.
# Tested on: PF3D7_0420300 AP2 domain 1 (GST-tagged)
# Assay: gcPBM binding intensity (ln(normalized median fluorescence intensity)); higher = stronger DNA binding
# Method in brief: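 Using an Agilent 4 × 180k array, primer-extended double-stranded 36-bp intergenic genomic probes and negative controls were exposed for 1 h to GST-fused P. falciparum DNA-binding domains expressed in E. coli. Binding was carried out in 1× PBS with 1% milk, 0.2 mg/ml BSA, 0.5% salmon testes DNA and 0.03% Triton X-100, and protein was detected with Alexa488 anti-GST antibody and a 488 nm scan. Binding intensity is the highest Masliner-normalised natural-log median intensity across replicate spots of either probe orientation.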
row,Sequence,gcPBM binding intensity (ln)
1,ATATATTGAAAAAAATGTACGTATTTTTTTATGTTA [XGTACX_site4654],9.11
2,AATCAAAATTAATTAACACACAATTTTAATATTCTT [CACACA_site2063],9.31
3,ACACATATATATTATTATTATATAATATATATATAT [CACACA_negctrl_site1545],9.21
4,ACATGTTTTATGTGCACACAAAGTTGTTATGAGGTT [CACACA_site4031],9.64
5,ATATAATATTTCATGTGGACACATTTTATGATTGTA [XGTACX_site8770],9.4
6,TCCATGCAGAAACACACACACAAAAAAAAATTCTTT [CACACA_site4099],9.83
7,AAAAAAATTACATATCCATTTTAACATAATAAATAG [GTGCAC_negctrl_site618],9.09
8,TTTTTGCAAAAAGAAATAATTTTATTTTAGTTCGGA [CACACA_negctrl_site1718],8.78
9,ATTCTATTCTCCTTCACACACAAAAATATTTCATCA [CACACA_site2360],9.77
10,ATCTATGGGTAGTATACACACTGTATATTTAGGAAT [CACACA_site5569],9.34
11,TTACGAATAAAACAGTGTACATTGAATTTCTATGAG [XGTACX_site4771],9.2
12,TATGTACAAATATGTACACACACACCGATATATATA [CACACA_site4487],9.96
13,ACTAATAACAAAAGCTTGCACTTTTTTTTTCCTAAT,9.16
14,TATAATTTTCTTAGTAGTACATTTTAAATCTACTAC [XGTACX_site2621],8.99
15,TGTATCCACATATGTACACACATATATCTGTATATG [CACACA_site5668],9.51
16,AAAAAAAAAAAAAAAAGTACAAAAATTATATTAAGA [XGTACX_site4255],9.21
17,ATATAAGATTACAAAAATTATGTGTAAATATTTAAT [XGTACX_negctrl_site448],9.1
18,ACCTATATAAATTATACACACAAATATAAATATATA [CACACA_site2843],9.66
19,AATTATATATAACGTAGTACATATTATAAACCACGT [XGTACX_site8816],9.46
20,TATAATAATAATGATAGTACGTATGAGTTCAAGAAA [XGTACX_site4918],9.4
21,TGTCATAAAACCGTTTGTACATATTAATAGACACCT [XGTACX_site4520],9.14
22,TTGTTATTCCACCGTTGTACAGTTATATACATACAC [XGTACX_site8296],9.47

row,Sequence,gcPBM binding intensity (ln)
1,ATATTCCTTTAATATTGTACTATTTTTTTCCTTATA [XGTACX_site8659],9.55
2,TATATATATATATATTGTACTAAATCATTTAAATGA [XGTACX_site8016],9
3,AAAAAACAAAAACACACGCACACAAAAAAAAAAAAA [CACACA_site802],9.82
4,ATGAAAATATTTAAAAGTACAGAAATATAAAACCTT [XGTACX_site403],9.5
5,CACAAATATACAAATACACACAAATATACACATATA [CACACA_site7176],9.77
6,TATAAAATATAAATAAATAAATAAATATATATATAT [TGCATGCA_negctrl_site448],9.11
7,AAAATATTTATCATTTGTACTTAGATGTAAACTTGA [XGTACX_site1778],8.92
8,TATTTTATACACTTGCTAAAACATTAACACATATGT [CACACA_negctrl_site1818],9.38
9,ATTATACACCCGCGCACACACAACAAAAAAAAAAAA [CACACA_site5871],9.78
10,ATGCAATTATATAGTAGTACAAATTTATAAATATAC [XGTACX_site4869],9.39
11,TCATATATTATATATTGTACAAAATAATAAGTATTT [XGTACX_site3987],8.99
12,ATAATTGTTTAAAGGTGTACAATACATATATTTTAA [XGTACX_site3648],9.24
13,ATATATATATATATGGGTACGTAAAAATATAATAAA [XGTACX_site4036],9.44
14,GTTGTTATATAAAATTGTACATAAAAAACAAAATAT [XGTACX_site5313],9.26
15,TTTTCTTTCTTTCAAACACACATTAATTTTATTCAT [CACACA_site2734],9.33
16,TAAAATTATTAATGAGTGCATTATAAAATCTATATA [GTGCAC_site9493],9.02
17,ATAAATGGCTATAGCATATTGTATATGTGATTATAA [CACACA_negctrl_site948],9.17
18,ATTCTAAATATCAGTGCACACATTTCTACGCAAAGT [CACACA_site474],9.36
19,ACATACATATATATACGTACATATATATTTATATAT [XGTACX_site5799],9.35
20,AGCAAATACAAACACACACACACATATACATATATA [CACACA_site3497],10.2
21,TAATTACAAAAACATACACACAAAAAAAAAAAAAAA [CACACA_site3782],9.51
22,GTTGGTAGATTTATTTGTACATATGTATCATATTAT [XGTACX_site7135],9.58

row,Sequence,gcPBM binding intensity (ln)
1,AAAAATTTATTTTGTTTTTTAAGATTTTTTTTTTTT [CACACA_negctrl_site1210],8.8
2,ATATTAAGAATATATACACACATAAGTATTGTATAT [CACACA_site6110],9.52
3,ATAAAATAAAATAAATGTACACGAAAAAAAATATTT [XGTACX_site3747],9.64
4,TATTCGTGCAATAGTAGTACACTTATAAATTATTCT [XGTACX_site4899],9.24
5,AGTGAGAAATACATAATAATACATTATGTGCATATT [XGTACX_negctrl_site247],9.36
6,TTACTTGTTTATTTTATTTTTTTTTTTTTTTTGTTA [TGCATGCA_negctrl_site266],9.08
7,AAGAATATTTTTTTCTGTACATATAATTTATATACG [XGTACX_site5801],9.13
8,GTACACATATATATATATATATATATATATATATTA [CACACA_negctrl_site1580],9.14
9,ATCTTATATATACGTTGTACTACAGGATATGTCATA [XGTACX_site5734],9.28
10,TGTATATTATAAGATAGTACATATATATAATATATA [XGTACX_site1297],9.14
11,TTCATTTACCCTTATTAACACACAAAATATAATACG [CACACA_site8821],9.51
12,ATAAATATCATATATATACACACGTAATACATAATA [CACACA_site4001],9.56
13,TCTTACAAAAAAAAAAAAAAATAAAATAAAATATAT [CACACA_negctrl_site1575],9.09
14,AAGGAGATAATTTATTGTACATATAATAAATGAACA [XGTACX_site6252],9.18
15,TTAATATTATGTTAAAGTACTTTATATATATATAAT [XGTACX_site2646],8.96
16,CAAACATTTTAATGTACACACACCCACAGACAAACA [CACACA_site5522],9.78
17,TTCTTTTTGAAATATTAACACACATTTTGTTAATTA [CACACA_site9337],9.43
18,AGGAATTTATAAAATTGTACTTTTAATTACCTACAG [XGTACX_site3153],9.05
19,AACGAAAGAAAAAAAGCACACACAGTTTTGAGCAAT [CACACA_site8658],9.75
20,ACCATGATAAATGTATTAAATGTATCATAACCTATG [CACACA_negctrl_site513],9.22
21,ATCCGTGTCTGAAATACACACATGATAATGTGAATG [CACACA_site8210],9.42
22,ATGGAAACAAGCATCACACATATAAATATATATATA [CACACA_site4979],9.44

row,Sequence,gcPBM binding intensity (ln)
1,AAATAAGAGAAAATATGTACATACATATATTTATAT [XGTACX_site6210],9.36
2,TCATAAAATATGTTTTGTACATAAAATTAAACAAGT [XGTACX_site1763],9.08
3,ATATAATTTGTTATACTAACTTTTTAATTATTGATA [GTGCAC_negctrl_site443],9.15
4,AAATATAAATAAAGATGTACATTATCTATATGTGAT [XGTACX_site4863],9.35
5,AATACGTTTATATATTGTACGTTATATATATATATA [XGTACX_site7452],9.26
6,AAGAAAAGCAAACAAGTGCATAATAACAAAAAAAAT [GTGCAC_site9725],9.63
7,TATTTATTTATAAACACACAAATATTTTTATTTATA [CACACA_site6889],9.15
8,TAAGTTCGAATTACTTAAATATTGATTTTTTTAAAA [TGCATGCA_negctrl_site114],8.74
9,AATTTTCTACAAATGTGTACTAAATAAAATATTACT [XGTACX_site7175],9.13
10,ATGTGTGTATTTTATAGTACAGTTACAAGCATTTTT [XGTACX_site6351],9.57
11,ACAATGAGGATATATACACACATACATTAAAAAAAT [CACACA_site6955],9.77
12,TTTTTCTGTTCTTTTTGTACTTAAATATATTTATTT [XGTACX_site5658],9.57
13,AAAAAAGAAAAAAGGACACACATAAATATACACCCG [CACACA_site5590],9.75
14,CACAAAAATAAACACACACACATATATATATATATA [CACACA_site4704],9.75
15,AGAATATAATTTTTATGTACATATATTAAATATATT [XGTACX_site8521],9.19
16,ACTTTTATTATTTATATACACACTTGCTGAAATGTT [CACACA_site3637],9.81
17,AGTTATAAAATATTTGCATGTAAATATATTATCTAT [TGCATGCA_site1015],9.22
18,TTTTTTTTTTTTAGAGTACACACTTTTTTACATTTA [CACACA_site3836],9.28
19,GTTGAAAATACAGAACGTACACGTTTGCCATATTGT [XGTACX_site2254],9.22
20,TATGAAATGCTCCAATCACACATGAATGTAATATAT [CACACA_site5458],9.17
21,ATATGATTTATAAAGTGTACCTTATTATAAGAAACA [XGTACX_site7914],9.11
22,TAAGATGATATAGACTGTACATATTGAACTTACAAG [XGTACX_site4290],9.21
